The supplement of paper PMC8948288
Shown are siRNA guide strands that differ only in the seed, positions 2 to 7.

Tests used:
[1] = test system: GL261; experiment: cell viability relative to siNT1 (ATP content); H4 human neuroglioma and GL261 mouse glioma; higher = less toxic; details: siRNA concentration 25 nM; 96 h; mouse
Experimental: (§1)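 Arrayed screen of all 4096 6mer seeds. Each seed sits at guide-strand positions 2-7 of a neutral 19mer siRNA backbone (siNT1-based, passenger strand 2'-O-methyl modified at positions 1-2 to block RISC loading, 3' DNA overhangs). The guide strand is built here as U + seed + ACAUGUAAACCA. Cells were reverse transfected in triplicate in 384-well plates (H4 at 10 nM, GL261 at 25 nM) with Lipofectamine RNAiMAX. Viability was read as ATP content (CellTiter-Glo) 96 h after transfection and normalised to siNT1 (%).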

[2] = test system: H4; experiment: as above; details: siRNA concentration 10 nM; 96 h; human
Experimental: as §1
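Note: cells reverse transfected with siRNA duplexes via lipid reagent, ATP read by luminescence, triplicate wells, values scaled to mean viability with non-targeting control siNT1.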

UCAACCUACAUGUAAACCA
cell viability [1]: 40.6% | cell viability [2]: 71.4%

UCAACGAACAUGUAAACCA
cell viability [1]: 40.7% | cell viability [2]: 75.1%

UCAACGCACAUGUAAACCA
cell viability [1]: 46.3% | cell viability [2]: 82.3%

UCAACGGACAUGUAAACCA
cell viability [1]: 58.5% | cell viability [2]: 100%

UCAACGUACAUGUAAACCA
cell viability [1]: 56% | cell viability [2]: 88.8%

UCAACUAACAUGUAAACCA
cell viability [1]: 46.6% | cell viability [2]: 87.6%

UCAACUCACAUGUAAACCA
cell viability [1]: 62.8% | cell viability [2]: 82.3%

UCAACUGACAUGUAAACCA
cell viability [1]: 50.2% | cell viability [2]: 93.5%

UCAACUUACAUGUAAACCA
cell viability [1]: 48% | cell viability [2]: 111%

UCAAGAAACAUGUAAACCA
cell viability [1]: 91.7% | cell viability [2]: 117%

UCAAGACACAUGUAAACCA
cell viability [1]: 38.7% | cell viability [2]: 60.9%

UCAAGAGACAUGUAAACCA
cell viability [1]: 90.5% | cell viability [2]: 85.4%

UCAAGAUACAUGUAAACCA
cell viability [1]: 39.7% | cell viability [2]: 77.4%

UCAAGCAACAUGUAAACCA
cell viability [1]: 63.4% | cell viability [2]: 115%

UCAAGCCACAUGUAAACCA
cell viability [1]: 19.7% | cell viability [2]: 41.9%

UCAAGCGACAUGUAAACCA
cell viability [1]: 53.4% | cell viability [2]: 107%

UCAAGCUACAUGUAAACCA
cell viability [1]: 57.5% | cell viability [2]: 94.3%

UCAAGGAACAUGUAAACCA
cell viability [1]: 63.5% | cell viability [2]: 93.6%

UCAAGGCACAUGUAAACCA
cell viability [1]: 16.5% | cell viability [2]: 44.4%

UCAAGGGACAUGUAAACCA
cell viability [1]: 30.7% | cell viability [2]: 84.5%

UCAAGGUACAUGUAAACCA
cell viability [1]: 35.6% | cell viability [2]: 60.2%

UCAAGUAACAUGUAAACCA
cell viability [1]: 66.4% | cell viability [2]: 95.8%

UCAAGUCACAUGUAAACCA
cell viability [1]: 29.6% | cell viability [2]: 68%

UCAAGUGACAUGUAAACCA
cell viability [1]: 61.5% | cell viability [2]: 99.9%

UCAAGUUACAUGUAAACCA
cell viability [1]: 46.5% | cell viability [2]: 104%

UCAAUAAACAUGUAAACCA
cell viability [1]: 59.6% | cell viability [2]: 86.2%

UCAAUACACAUGUAAACCA
cell viability [1]: 37.3% | cell viability [2]: 81.1%

UCAAUAGACAUGUAAACCA
cell viability [1]: 48.4% | cell viability [2]: 121%

UCAAUAUACAUGUAAACCA
cell viability [1]: 65.4% | cell viability [2]: 101%

UCAAUCAACAUGUAAACCA
cell viability [1]: 42.6% | cell viability [2]: 108%

UCAAUCCACAUGUAAACCA
cell viability [1]: 23.6% | cell viability [2]: 43.9%

UCAAUCGACAUGUAAACCA
cell viability [1]: 50.5% | cell viability [2]: 82.7%

UCAAUCUACAUGUAAACCA
cell viability [1]: 47.6% | cell viability [2]: 85.4%

UCAAUGAACAUGUAAACCA
cell viability [1]: 88.3% | cell viability [2]: 104%

UCAAUGCACAUGUAAACCA
cell viability [1]: 15.2% | cell viability [2]: 75.3%

UCAAUGGACAUGUAAACCA
cell viability [1]: 54.9% | cell viability [2]: 73.8%

UCAAUGUACAUGUAAACCA
cell viability [1]: 44.5% | cell viability [2]: 82%

UCAAUUAACAUGUAAACCA
cell viability [1]: 66.9% | cell viability [2]: 118%

UCAAUUCACAUGUAAACCA
cell viability [1]: 62.1% | cell viability [2]: 81.2%

UCAAUUGACAUGUAAACCA
cell viability [1]: 79.3% | cell viability [2]: 113%

UCAAUUUACAUGUAAACCA
cell viability [1]: 53.5% | cell viability [2]: 87.2%

UCACAAAACAUGUAAACCA
cell viability [1]: 31.7% | cell viability [2]: 90.3%

UCACAACACAUGUAAACCA
cell viability [1]: 17.1% | cell viability [2]: 89.8%

UCACAAGACAUGUAAACCA
cell viability [1]: 48.4% | cell viability [2]: 95.3%

UCACAAUACAUGUAAACCA
cell viability [1]: 24.1% | cell viability [2]: 87.8%

UCACACAACAUGUAAACCA
cell viability [1]: 42.9% | cell viability [2]: 97.2%

UCACACCACAUGUAAACCA
cell viability [1]: 19.8% | cell viability [2]: 40.3%

UCACACGACAUGUAAACCA
cell viability [1]: 21.4% | cell viability [2]: 105%

UCACACUACAUGUAAACCA
cell viability [1]: 20.2% | cell viability [2]: 75.3%

UCACAGAACAUGUAAACCA
cell viability [1]: 12.8% | cell viability [2]: 72.8%

UCACAGCACAUGUAAACCA
cell viability [1]: 10.9% | cell viability [2]: 31.5%

UCACAGGACAUGUAAACCA
cell viability [1]: 11.6% | cell viability [2]: 80.8%

UCACAGUACAUGUAAACCA
cell viability [1]: 21.6% | cell viability [2]: 60.6%

UCACAUAACAUGUAAACCA
cell viability [1]: 27.8% | cell viability [2]: 78%

UCACAUCACAUGUAAACCA
cell viability [1]: 15.9% | cell viability [2]: 93.1%

UCACAUGACAUGUAAACCA
cell viability [1]: 37.5% | cell viability [2]: 95.5%

UCACAUUACAUGUAAACCA
cell viability [1]: 41.8% | cell viability [2]: 119%

UCACCAAACAUGUAAACCA
cell viability [1]: 21.3% | cell viability [2]: 100%

UCACCACACAUGUAAACCA
cell viability [1]: 25.5% | cell viability [2]: 65.9%

UCACCAGACAUGUAAACCA
cell viability [1]: 26.4% | cell viability [2]: 97.6%

UCACCAUACAUGUAAACCA
cell viability [1]: 25.4% | cell viability [2]: 74.5%

UCACCCAACAUGUAAACCA
cell viability [1]: 22.5% | cell viability [2]: 104%

UCACCCCACAUGUAAACCA
cell viability [1]: 16.2% | cell viability [2]: 12.9%

UCACCCGACAUGUAAACCA
cell viability [1]: 37.1% | cell viability [2]: 75.9%

UCACCCUACAUGUAAACCA
cell viability [1]: 26.4% | cell viability [2]: 65.4%

UCACCGAACAUGUAAACCA
cell viability [1]: 36.3% | cell viability [2]: 100%

UCACCGCACAUGUAAACCA
cell viability [1]: 9.53% | cell viability [2]: 33.7%

UCACCGGACAUGUAAACCA
cell viability [1]: 22.9% | cell viability [2]: 81%

UCACCGUACAUGUAAACCA
cell viability [1]: 18.1% | cell viability [2]: 81.5%

UCACCUAACAUGUAAACCA
cell viability [1]: 43.9% | cell viability [2]: 77.7%

UCACCUCACAUGUAAACCA
cell viability [1]: 25.2% | cell viability [2]: 70.3%

UCACCUGACAUGUAAACCA
cell viability [1]: 44.1% | cell viability [2]: 97.5%

UCACCUUACAUGUAAACCA
cell viability [1]: 42.5% | cell viability [2]: 80%

UCACGAAACAUGUAAACCA
cell viability [1]: 37.4% | cell viability [2]: 103%

UCACGACACAUGUAAACCA
cell viability [1]: 27.1% | cell viability [2]: 74.6%

UCACGAGACAUGUAAACCA
cell viability [1]: 36.9% | cell viability [2]: 74.2%

UCACGAUACAUGUAAACCA
cell viability [1]: 50.9% | cell viability [2]: 90.1%

UCACGCAACAUGUAAACCA
cell viability [1]: 29.1% | cell viability [2]: 79.2%

UCACGCCACAUGUAAACCA
cell viability [1]: 12.6% | cell viability [2]: 83.2%

UCACGCGACAUGUAAACCA
cell viability [1]: 35.7% | cell viability [2]: 81.9%

UCACGCUACAUGUAAACCA
cell viability [1]: 13.7% | cell viability [2]: 122%

UCACGGAACAUGUAAACCA
cell viability [1]: 23.5% | cell viability [2]: 71%

UCACGGCACAUGUAAACCA
cell viability [1]: 23.2% | cell viability [2]: 46.3%

UCACGGGACAUGUAAACCA
cell viability [1]: 13.1% | cell viability [2]: 59.7%

UCACGGUACAUGUAAACCA
cell viability [1]: 13.3% | cell viability [2]: 66%

UCACGUAACAUGUAAACCA
cell viability [1]: 33.5% | cell viability [2]: 115%
